# In paper PMC3234288:
# The chains behind the UniProt entries cited, without tags or fusion partners. Residues count along the entry.
# UniProt Q9UBV2, residues 22-794: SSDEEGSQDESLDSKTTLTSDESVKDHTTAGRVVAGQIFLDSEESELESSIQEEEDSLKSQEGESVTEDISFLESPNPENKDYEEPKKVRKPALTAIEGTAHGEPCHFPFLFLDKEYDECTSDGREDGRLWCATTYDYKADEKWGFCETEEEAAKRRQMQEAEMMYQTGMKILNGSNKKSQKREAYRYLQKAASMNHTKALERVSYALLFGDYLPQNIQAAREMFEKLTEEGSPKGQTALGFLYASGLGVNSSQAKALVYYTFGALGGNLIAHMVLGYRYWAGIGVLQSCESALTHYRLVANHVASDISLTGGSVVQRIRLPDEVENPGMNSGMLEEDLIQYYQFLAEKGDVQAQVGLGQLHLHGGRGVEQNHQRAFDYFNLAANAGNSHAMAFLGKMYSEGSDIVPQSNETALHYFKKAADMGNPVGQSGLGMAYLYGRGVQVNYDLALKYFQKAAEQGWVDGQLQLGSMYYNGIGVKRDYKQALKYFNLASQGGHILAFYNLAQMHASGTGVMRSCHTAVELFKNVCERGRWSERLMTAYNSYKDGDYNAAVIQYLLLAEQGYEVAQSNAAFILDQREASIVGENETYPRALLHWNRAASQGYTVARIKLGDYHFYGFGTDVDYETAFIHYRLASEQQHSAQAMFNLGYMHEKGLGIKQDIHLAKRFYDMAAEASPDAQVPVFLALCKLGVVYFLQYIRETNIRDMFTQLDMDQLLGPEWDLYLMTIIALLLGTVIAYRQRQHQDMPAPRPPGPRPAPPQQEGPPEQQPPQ
# UniProt P46379: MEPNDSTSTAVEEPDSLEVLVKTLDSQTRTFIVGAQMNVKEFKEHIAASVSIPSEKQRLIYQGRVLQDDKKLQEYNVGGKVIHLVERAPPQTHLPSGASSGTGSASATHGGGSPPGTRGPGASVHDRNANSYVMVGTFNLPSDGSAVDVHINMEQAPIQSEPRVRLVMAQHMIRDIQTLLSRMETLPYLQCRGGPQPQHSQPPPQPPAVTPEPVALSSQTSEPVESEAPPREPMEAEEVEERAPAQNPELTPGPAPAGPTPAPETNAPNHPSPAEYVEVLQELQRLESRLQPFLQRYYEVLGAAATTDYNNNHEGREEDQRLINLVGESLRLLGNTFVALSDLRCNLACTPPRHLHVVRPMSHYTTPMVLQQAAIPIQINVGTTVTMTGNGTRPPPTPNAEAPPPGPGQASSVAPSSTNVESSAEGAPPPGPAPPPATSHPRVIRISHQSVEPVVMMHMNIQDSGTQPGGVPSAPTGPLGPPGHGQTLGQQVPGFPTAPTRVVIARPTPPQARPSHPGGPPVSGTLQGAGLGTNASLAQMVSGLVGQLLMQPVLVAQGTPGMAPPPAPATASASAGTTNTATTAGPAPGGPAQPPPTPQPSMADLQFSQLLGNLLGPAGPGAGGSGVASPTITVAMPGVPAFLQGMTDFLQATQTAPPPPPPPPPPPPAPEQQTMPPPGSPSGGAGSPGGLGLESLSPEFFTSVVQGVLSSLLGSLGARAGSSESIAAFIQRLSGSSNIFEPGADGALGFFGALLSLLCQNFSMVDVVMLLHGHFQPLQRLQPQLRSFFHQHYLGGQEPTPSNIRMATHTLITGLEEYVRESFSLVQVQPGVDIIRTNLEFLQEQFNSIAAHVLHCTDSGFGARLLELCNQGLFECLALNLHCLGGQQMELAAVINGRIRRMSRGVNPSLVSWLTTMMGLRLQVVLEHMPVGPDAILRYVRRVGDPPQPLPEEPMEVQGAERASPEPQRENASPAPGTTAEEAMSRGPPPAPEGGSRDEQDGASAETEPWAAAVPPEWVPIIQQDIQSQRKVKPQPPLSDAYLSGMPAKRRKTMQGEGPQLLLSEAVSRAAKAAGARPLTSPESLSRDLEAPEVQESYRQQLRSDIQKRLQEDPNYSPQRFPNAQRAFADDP
# These are yes or no findings as the source states them, for the method shown. In cells and extracts the contact can be indirect. Some binding calls cover weakened binding; strength is not graded here. For some assays here: Where a sequence is shown, tags or fusion partners need not be part of it.
# Assays:
# Derlin2, overexpressed = biological target: T1, Derlin2, overexpressed (UniProt Q9GZP9); assay: co-IP; 293T cells transiently transfected with Derlin2 or Derlin2-GFP, NP40 lysis, immunoprecipitation for Derlin2, blot for BAT3
# T1 sequence: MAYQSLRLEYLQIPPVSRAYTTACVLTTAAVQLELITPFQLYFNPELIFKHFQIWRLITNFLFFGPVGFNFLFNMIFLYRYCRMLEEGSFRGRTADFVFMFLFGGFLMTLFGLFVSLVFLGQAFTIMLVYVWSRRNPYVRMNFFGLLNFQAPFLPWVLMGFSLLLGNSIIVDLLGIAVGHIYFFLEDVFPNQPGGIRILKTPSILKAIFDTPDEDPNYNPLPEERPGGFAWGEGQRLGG
# [1] = biological target: T2, Derlin2-GFP fusion protein (UniProt Q9GZP9); assay: as above
# T2 sequence: T1 sequence
# [2] = biological target: T3, Derlin1, endogenous in 293T cells (human (endogenous in 293T)) (UniProt Q9BUN8); assay: co-IP; untransfected 293T cells, NP40 lysis (0.5% NP40, 10 mM Tris-HCl, 150 mM NaCl, 5 mM MgCl2, pH 7.4), immunoprecipitation of endogenous proteins on protein A, 3 h at 4°C; pre-immune serum as control; blot for BAT3
# T3 sequence: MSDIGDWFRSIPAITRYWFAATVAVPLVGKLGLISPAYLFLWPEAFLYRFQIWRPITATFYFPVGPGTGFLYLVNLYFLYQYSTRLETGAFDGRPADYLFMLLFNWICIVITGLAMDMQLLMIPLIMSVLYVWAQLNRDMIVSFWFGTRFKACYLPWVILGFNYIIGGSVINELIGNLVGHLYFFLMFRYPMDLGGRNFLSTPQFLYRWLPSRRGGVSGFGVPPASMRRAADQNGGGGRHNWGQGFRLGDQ
# [3] = biological target: T4, Derlin2, endogenous in 293T cells (human (endogenous in 293T)) (UniProt Q9GZP9); assay: as above
# T4 sequence: T1 sequence
# [4] = biological target: SEL1L, endogenous in 293T cells (human (endogenous in 293T)) (UniProt Q9UBV2); assay: as above
substance,measurement,setting,value
"BAT3 (BAG6/Scythe), endogenous in 293T cells (from UniProt P46379 1-1132)",binding,"Derlin2, overexpressed",binds
same,binding,[1],binds
same,binding,[2],no binding
same,binding,[3],binds
same,binding,[4],no binding
